Assay results as given in ChEMBL document CHEMBL4888484, “Replenishing the malaria drug discovery pipeline: Screening and hit evaluation of the MMV Hit Generation Library 1 (HGL1) against asexual blood stage Plasmodium falciparum ,using a nano luciferase reporter read-out” (2022).
The whole screen tested about 150,000 compounds, of which about 540 (0.36%) showed an effect of 50% or more. The list shows a part of the results.

test system: Plasmodium falciparum; assay: Primary screen in NF54 nanoGlo assay, in single point, at 2uM, 72h; a lower Z score goes with more inhibition; assay type: functional, Erythrocyte; details: timepoint 72 hour

SMILES	% Inhibition [%]	Z score
NC(=NCc1csc2ccccc12)N1CCN(c2nccs2)CC1	5	-0.56
CC(C)(C)CN1C[C@@H](NS(=O)(=O)c2cccs2)CC1=O	-22	2.06
Cc1nccc(N2CCOCC3(CC3)C2)c1Cl	-8	1.56
Cc1cc(S(=O)(=O)c2ccc3ccccc3c2)n2nc(C)nc2n1	35	-3.96
COCCc1noc(CCc2nc(-c3ccccc3)no2)n1	-4	0.76
O=C1COc2ccc(S(=O)(=O)Oc3ccccc3F)cc2N1	6	-1.07
CC[C@H](C)Oc1cc(CNc2nccnc2C#N)ccn1	7	-0.64
CCc1nc(C)c(-c2c(-c3ccccc3)ncn2Cc2cnc(C)cn2)[nH]1	1	-0.09
COc1cccc(C(=O)N2CCN(C)[C@@H]3CS(=O)(=O)C[C@@H]32)c1O	1	-0.08
COc1ccc(C(=O)N[C@@H]2CN(C(=O)NC(C)C)CCC[C@H]2O)cc1	15	-2.32
O=C(O)c1cnc(N2CCC(Cc3ccccc3)CC2)c(NS(=O)(=O)c2ccc(F)c(F)c2)c1	4	-0.34
CN1CCCCC[C@H]1C(=O)N1CCN(c2ccc(OCc3ccccc3)cc2)CC1	-7	1.28
CC(=O)N1CCc2cc(S(=O)(=O)N3CCC(CC(=O)N4CCCCCC4)CC3)ccc21	-20	1.84
CC(C)n1cc(CNCC2CCC3(CC2)OCCO3)cn1	-9	1.17
Cc1cnn(C)c1CN1CCc2ccccc2C1(C)C	-10	1.14
CCn1nc(C)cc1C(=O)N1CC[C@@]2(CCCN(CCC3CCCCC3)C2)C1	1	-0.16
O=S(=O)(CC12CCC(CC1)C2)N1CCc2c(ncn2-c2ccccc2)C1	-14	1.53
COC[C@](C)(CCO)Nc1ncnc2c(C)cccc12	29	-3.32
C[C@]1(c2ccccc2)CCC(=O)N(CCCNc2cccnc2)C1	-16	1.99
Cc1n[nH]c(CN(C)Cc2noc(C(C)C)n2)c1Cl	-16	1.54
O=C(NCCc1ccccc1)N1C[C@@H]2C[C@H](NS(=O)(=O)c3cccs3)[C@H]1C2	35	-3.98

SMILES	% Inhibition [%]	Z score
O=C([C@@H]1CCCO1)N1CCC(c2cnn(-c3cccc(F)c3)c2)CC1	-10	1.25
COc1cccc(CCC(=O)N2CCNC(=O)[C@@H]2c2ccccc2Cl)c1F	-11	1.28
CC(C)(C)CCS(=O)(=O)NC[C@H]1CCN(C2CC2)C1	-10	1.18
Cc1ccccc1CNC(=O)CN1CC[C@](C)(O)[C@H](O)C1	-12	1.51
CC(C)N(C)S(=O)(=O)NCCc1csc(N2CCCC2)n1	-5	0.51
CCc1nc(C(C)NC(C)C(=O)N(C)C)cs1 (stereo unspecified)	6	-0.74
COC1(C(F)(F)F)CN(C(=O)Nc2ncn(C(C)(C)C)n2)C1	2	-0.26
CCOC(=O)[C@H]1CCCN(C2CC(OCC)C2)C1 (stereo partly specified)	-2	0.19
CN(Cc1cccnc1)C(=O)N[C@H]1CCC[C@H]1F	-5	1.03
CN(C)C(=O)[C@@]12CN(CC3CCCCC3)C[C@@H]1CN(C(=O)c1ccccc1)C2	-7	0.97
CC(C)[C@H](N)C(=O)N1CCN(CC2CCCC2)C(=O)C1	-10	1.03
CC(C)CN(CC1CN(Cc2ccc(Cl)cc2)CC1c1ccccc1)C(=O)c1ccccc1F (stereo unspecified)	-5	0.97
CCO[C@@H](C)c1ncc(C(=O)NCCn2cnnn2)s1	-1	0.17
Cc1cc(CN2CCC[C@@H]2CF)n(C)n1	4	-0.44
C[C@@]1(C(=O)NCCN2CCOCC2)COCc2nnc(-c3ccccc3)n21	-7	0.82
CC(C)(C)c1cc(C(=O)N2CCOCC2(C)C)[nH]n1	-5	0.72
CN(C)CCN1C(=O)C[C@](CC(=O)N(C)Cc2nc3ccc(F)cc3[nH]2)(c2ccccc2F)C1=O	-1	0.22
CCc1cccc(C(=O)NCCc2cncn2C)n1	-7	0.95
CCCS(=O)(=O)N1CC(=O)N(c2cccc(OC)c2)[C@](C)(C(=O)NC2CCCCCCC2)C1	-5	0.68
Cc1ccc2[nH]c(=O)cc(C(=O)N3CCC[C@@]4(CCN(C)C4)C3)c2c1	-8	1.22
Cc1cc(C)cc(NC(=O)C2CCN(c3cc(-c4cccc(C)c4)ncn3)CC2)c1	-1	0.07

SMILES	% Inhibition [%]	Z score
O=C1CCOCCN1Cc1cc(F)ccc1Cl	6	-1.23
NC(=O)Nc1cc(Cl)cc(Cl)c1	3	-0.31
COc1cccc([C@H]2CC(O)=Nc3nc(N)sc32)c1OCc1cccc(F)c1	-10	1.23
COc1ccccc1CCc1nc(-c2cccnc2)n[nH]1	5	-0.92
CC(=O)N1CC2(CCN(CCOc3ccc(C)cc3C)CC2)C[C@H]1C(=O)O	6	-1.08
O=C1c2cc[nH]c2CC[C@@H]1N1CCN(C(c2ccccc2)c2ccccc2)CC1	-6	0.74
COCC(=O)Nc1cc(C(=O)NCc2ccc(C)cc2)c2c(c1)ncn2Cc1ccc(F)cc1	-4	0.41
COc1cc(C(=O)NC(C)(C)C#N)on1	-7	1.21
COc1ccc(Cl)cc1Cc1noc(C2(C#N)CCCC2)n1	-14	2.19
CCN(C)C(=O)c1coc(CN(Cc2ccc3c(c2)OCO3)Cc2ccccc2F)n1	-10	1.66
CCOc1cc(CN[C@@H](CO)c2ccccc2)c(Cl)cc1OC(C)C	-1	0.15
COc1cc2c(cc1OC)C1(CCCCC1)CN(C)C2	-3	0.39
O=c1cc([C@H]2CCCN(Cc3ccco3)C2)nc(-c2cnccn2)[nH]1	-2	0.34
CCc1ncc(C(=O)N(Cc2sccc2C)[C@@H](C)CC)cn1	-6	0.83
O=C1N[C@H]2CN(C(=O)CCC3CCC3)C[C@@H]2OCc2cn(nn2)CCOc2cccnc21	-9	1.1
O=C(CNc1cc(S(=O)(=O)N2CCOCC2)ccc1NC[C@H]1CCCO1)Nc1ccccc1	15	-1.74
O=C(c1ccc(F)cc1)N(CC(=O)N1CCc2sccc2C1COc1ccccc1)CC1CCCO1 (stereo unspecified)	2	-0.36
CC1(C)CC(NC(=O)c2cc(C3CC3)nc3ccccc23)CC(C)(C)N1	11	-1.22
N[C@H]1CCO[C@@H]1c1cncc(-c2ccccc2)c1	-7	0.94
Cc1nc(-c2ccccc2)nn1[C@H]1CCN(S(=O)(=O)c2cccnc2)C1	-14	1.88
CCCCN(CCC(=O)NCCOC)C(=O)c1cc(C)oc1C	7	-0.85

SMILES	% Inhibition [%]	Z score
Cc1ccccc1[C@@H](NC(=O)NCC1(O)CCN(C)CC1)c1ccncc1	7	-1.44
CCN(Cc1noc(C)n1)C(=O)c1cccc(-c2nc(C)cnc2C)c1	-5	0.98
CC[C@H](C)N1CCN(C(=O)C2CCN(c3ccncc3C)CC2)CC1	3	-0.44
CC(C)c1nccn1CC(=O)N1CCC(=O)N2CCC[C@@H]21	0	0.02
CC(C)(C)NC(=O)[C@@H]1C[C@@H]2CCCC[C@@H]2CN1Cc1ncccc1C(=O)O	7	-1.32
O=C(Nc1ccccc1)N1C(=O)C2(OCCO2)c2ccccc21	8	-0.97
C[C@H]1CN(C)C[C@@H](C(=O)N2CCn3c(cnc3C(F)(F)F)C2)O1	7	-0.95
O=C(NCC1Cc2c(ccc3cc(-c4cccnc4)ccc23)O1)C1CCCO1 (stereo unspecified)	-22	3.09
Cc1nc[nH]c1CN1CCc2[nH]cnc2[C@H]1c1ccc(Cl)c(Cl)c1	2	-0.19
CC(C)c1cnc(COc2ccc3c(c2)OCO3)o1	-9	1.05
CC[C@@H](C(=O)Nc1cc(OC)ccc1OC)n1c(C(=O)c2cccc(F)c2)nc2ccccc21	-12	1.54
COc1ccc(-c2nnc(N3CCN(C)C[C@@H]3C)s2)cc1	-1	0.21
COCCN(CC(=O)N1N=C(c2cccn2C)C[C@H]1c1ccccc1)C(=O)c1ccccc1F	-1	0.08
CC1CCC(CNC(=O)OC(C)(C)C)N(C(=O)c2cnccn2)C1C (stereo unspecified)	-4	0.68
COc1ccc(OCc2cc(C(=O)N3[C@H](C)CC[C@H]3C)n[nH]2)c(Cl)c1	9	-1.61
CN[C@@H](C)C(=O)NCCCn1c(C)cccc1=O	-13	2.33
O=C(CN1C(=O)c2cc(Cl)c(Cl)cc2C1=O)N1CCCCCC1	-18	2
CC(C)(Oc1cc2c(cc1-c1cccnc1)CCO2)C(=O)O	-11	2.04
C[C@@H](C1CC1)N(CCC#N)Cc1ccncc1	-4	0.37
COc1cc(C(=O)NCCc2ccc(F)cc2)ccc1OCC(=O)N1CCOCC1	-18	1.71
